Measurements published in PMC9724675, “POPDC1 scaffolds a complex of adenylyl cyclase 9 and the potassium channel TREK‐1 in heart” (EMBO Reports, 2022).

Biological target: T1, POPDC1-Myc (Popeye domain-containing protein 1, Myc-tagged) (mouse, UniProt Q9ES83 1-358)
T1 construct: POPDC1 (Bves), mouse; construct described in Froese et al 2012 and Schindler et al 2016b; Mouse is stated for the BiFC constructs, which were made from the previously described tagged constructs; also called Myc-tagged POPDC1; BVES; source: HEK293 or COS-7, transfected, in cells or in lysate
T1 sequence (looked up): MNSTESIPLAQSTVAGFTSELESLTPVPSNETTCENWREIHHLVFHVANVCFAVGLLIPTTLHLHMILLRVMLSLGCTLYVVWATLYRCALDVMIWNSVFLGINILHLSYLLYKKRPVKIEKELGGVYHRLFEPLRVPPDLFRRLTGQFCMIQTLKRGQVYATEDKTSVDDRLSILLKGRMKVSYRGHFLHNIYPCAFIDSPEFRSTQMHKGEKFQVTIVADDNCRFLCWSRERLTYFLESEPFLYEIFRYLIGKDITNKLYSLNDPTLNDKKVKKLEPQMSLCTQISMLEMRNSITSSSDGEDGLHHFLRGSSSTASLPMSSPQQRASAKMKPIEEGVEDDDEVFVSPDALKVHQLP
Experiment: co-IP; IP-AC assay: HEK293 lysates expressing AC1 or AC8 with or without Myc-tagged POPDC1, immunoprecipitation with anti-MYC, AC activity stimulated with 100 μM calcium and 300 nM calmodulin
Conditions: partners not purified

B1: nontagged AC8 (adenylyl cyclase 8) (enzyme)
chain: MELSDVRCLTGSEELYTIHPTPPAGDGRSASRPQRLLWQTAVRHITEQRFIHGHRGGSGSGSGGSGKASDPAGGGPNHHAPQLSGDSALPLYSLGPGERAHSTCGTKVFPERSGSGSASGSGGGGDLGFLHLDCAPSNSDFFLNGGYSYRGVIFPTLRNSFKSRDLERLYQRYFLGQRRKSEVVMNVLDVLTKLTLLVLHLSLASAPMDPLKGILLGFFTGIEVVICALVVVRKDTTSHTYLQYSGVVTWVAMTTQILAAGLGYGLLGDGIGYVLFTLFATYSMLPLPLTWAILAGLGTSLLQVILQVVIPRLAVISINQVVAQAVLFMCMNTAGIFISYLSDRAQRQAFLETRRCVEARLRLETENQRQERLVLSVLPRFVVLEMINDMTNVEDEHLQHQFHRIYIHRYENVSILFADVKGFTNLSTTLSAQELVRMLNELFARFDRLAHEHHCLRIKILGDCYYCVSGLPEPRQDHAHCCVEMGLSMIKTIRYVRSRTKHDVDMRIGIHSGSVLCGVLGLRKWQFDVWSWDVDIANKLESGGIPGRIHISKATLDCLNGDYNVEEGHGKERNEFLRKHNIETYLIKQPEDSLLSLPEDIVKESVSSSDRRNSGATFTEGSWSPELPFDNIVGKQNTLAALTRNSINLLPNHLAQALHVQSGPEEINKRIEHTIDLRSGDKLRREHIKPFSLMFKDSSLEHKYSQMRDEVFKSNLVCAFIVLLFITAIQSLLPSSRVMPMTIQFSILIMLHSALVLITTAEDYKCLPLILRKTCCWINETYLARNVIIFASILINFLGAILNILWCDFDKSIPLKNLTFNSSAVFTDICSYPEYFVFTGVLAMVTCAVFLRLNSVLKLAVLLIMIAIYALLTETVYAGLFLRYDNLNHSGEDFLGTKEVSLLLMAMFLLAVFYHGQQLEYTARLDFLWRVQAKEEINEMKELREHNENMLRNILPSHVARHFLEKDRDNEELYSQSYDAVGVMFASIPGFADFYSQTEMNNQGVECLRLLNEIIADFDELLGEDRFQDIEKIKTIGSTYMAVSGLSPEKQQCEDKWGHLCALADFSLALTESIQEINKHSFNNFELRIGISHGSVVAGVIGAKKPQYDIWGKTVNLASRMDSTGVSGRIQVPEETYLILKDQGFAFDYRGEIYVKGISEQEGKIKTYFLLGRVQPNPFILPPRRLPGQYSLA[sequence of about 20 residues not given]GHYNRRTLLSPSGTEPGAQAEGTDKSDLP
notes: adenylyl cyclase 8 (AC8), Ca2+/calmodulin-stimulated; the plasmid is not described; source: HEK293, transfected, in lysate
With B1 the “fold Ca2+/calmodulin-stimulated AC activity in the POPDC1 immunoprecipitate over IgG controls” value was 1.8 ± 0.2 fold.
